Data taken from PubChem BioAssay AID686978 (National Center for Advancing Translational Sciences (NCATS), 2013).
“And” between values parts separate entries of the source, which are not always exact repeats. Equal entries are not always repeated. Screen size: about 420,000 compounds; about 64,000 (15%) were called active. Inconclusive results, whose numbers are uncertain, are shown with a selection of clear calls. Calls come from the whole dose curve; as a rule, active = well fitted inhibition curve with a large enough effect; inconclusive = small, poorly fitted or top-dose-only effect; inactive = flat fitted curve, though single readings scatter. A potency beside an inconclusive call is a rough fit, not a confirmed value.

Assay: qHTS for Inhibitors of human tyrosyl-DNA phosphodiesterase 1 (TDP1): qHTS in cells in absence of CPT; note: nearly all actives have a fitted effect of over 55% in size
Conditions: DT40 Tdp1-/- hTDP1 cells, no CPT, ATP luminescence, 48 h; activity change, negative = growth inhibition: at 46.2 µM (top of the series) unless noted
Method in brief: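 Stably hTDP1-transfected Tdp1-null chicken DT40 cells were treated with library compounds minus camptothecin and grown for at least 48 hr at 37 °C, after which cellular ATP was quantified by luminescence.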
% is set by controls: 0 for no effect and ±100 for the full control effect; potency is the fitted concentration of half-maximal effect; tags give direction and shape of the fitted curve.

| Compound | Potency | activity change, negative = growth inhibition |
| --- | --- | --- |
| COc1ccc(-c2csc3nc(-c4ccccc4C)oc(=O)c23)cc1OC | inactive | – |
| Nc1c(Cl)cc(C=O)cc1Cl | inactive | – |
| CCOC(=O)C1(CC2CC2)CCN(C(=O)c2cc(OC)nc3ccccc23)CC1 | inconclusive: 16.4 µM [inhibitor, single point] | – |
| COc1ccc(C2(CNC(=O)c3ccccc3)CCOCC2)cc1 | inactive | – |
| Cc1ccc(-c2sc(-c3ccccc3)nc2CC(=O)Nc2ccccc2F)cc1 | inconclusive: 18.4 µM [inhibitor, single point] | – |
| CC(C)OC(=O)CSc1nc(N)c(C#N)c(-c2cccs2)c1C#N | inconclusive: 9.2 µM [inhibitor, partial curve] | – |
| Cc1ccccc1CS(=O)(=O)c1nnc([C@H](CC(C)C)NC(=O)OC(C)(C)C)o1 | active: 2.82 µM | – |
| COc1ccc(-c2nc(C)sc2CC(=O)O)cc1OC | inactive | – |
| COc1ccc(S(=O)(=O)N(CC(=O)NCCC(C)C)c2ccccc2)cc1OC | inconclusive: 29.1 µM [inhibitor, single point] | – |
| COc1cccc(CCN2C(=O)C(=O)N([C@@H](CNCc3ccccc3)Cc3ccccc3F)C[C@@H]2C(C)(C)C)c1 | inactive | – |
| Cc1ccc(S(=O)(=O)N(CC(=O)NCC2CCCO2)C2CCCCC2)cc1 (configuration not stated) | inconclusive: 32.6 µM [inhibitor, single point] | – |
| CN(C)c1ccc(C(=O)n2nnc3ccccc32)cc1 | inconclusive: 29.1 µM [inhibitor, single point] | – |
| COc1ccc(C2(Nc3cccc(C(=O)O)c3C)C(=O)c3ccccc3C2=O)cc1 | inactive | – |
| C/C(CC(=O)Nc1ccc(F)cc1)=N\NC(=O)COc1ccccc1 | inactive | – |
| CC(=O)c1c(N2CCOCC2)nc2ccc(Cl)cc2c1-c1ccccc1 | inactive | – |
| CC1=C(C(=O)N2CCCC(C(=O)c3cccc(C(F)(F)F)c3)C2)OCCO1 (configuration not stated) | inconclusive: 29.1 µM [inhibitor, single point] | – |
| CC1CC(=NNC(=O)C2COc3ccccc3O2)CC(C)(C)C1 (configuration not stated) | inactive | – |
| CCCN(CC(=O)Nc1cc(C)on1)CC(=O)Nc1ccccc1C | inactive | – |
| COc1ccc(/C=N/n2cnc3c([nH]c4ccc(F)cc43)c2=O)cc1CN1CCCC1 | active: 3.26 µM | – |
| Cc1cccc(C(=O)NC(C(=O)Nc2cccc(S(=O)(=O)N3CCCC3)c2)C(C)C)c1 (configuration not stated) | inconclusive: 18.4 µM [inhibitor, single point] | – |
| O=S(=O)(NC1CCCCC1N1CCN(c2cccc(Cl)c2)CC1)c1ccccc1 (configuration not stated) | inconclusive: 29.1 µM [inhibitor, single point] | – |
| CCSc1nnc(N(CCC(=O)O)CCC(=O)O)s1 | inconclusive: 1.03 µM [inhibitor, partial curve] | – |
| CCN1CCN(Cc2ccc(OCc3ccccc3)c(OC)c2)CC1 | inactive | – |
| Cn1cc([N+](=O)[O-])c(C(=O)Nc2cc(Oc3ccccc3)cc([N+](=O)[O-])c2)n1 | inactive | – |

| Compound | Potency | activity change, negative = growth inhibition |
| --- | --- | --- |
| CN(CC(=O)Nc1nc2ccccc2s1)S(=O)(=O)c1ccccc1 | inconclusive: 29.1 µM [inhibitor, single point] | – |
| CCc1ccccc1N(CC(=O)NCCc1ccccc1)C(=O)CCC(=O)Nc1ccccn1 | inconclusive: 29.1 µM [inhibitor, single point] | – |
| N=C1SC(CC(=O)Nc2ccc([N+](=O)[O-])cc2)C(=O)N1c1ccccc1 (configuration not stated) | inconclusive: 29.1 µM [inhibitor, single point] | – |
| COc1ccc(C(=O)N[C@H](C(=O)OCCCOC(=O)[C@@H](NC(=O)c2ccc(OC)cc2)C(C)C)C(C)C)cc1 | inconclusive: 29.1 µM [inhibitor, single point] | – |
| CNC(=S)N1CCN(c2nc(-c3ccc(F)cc3)cs2)CC1 | inconclusive: 29.1 µM [inhibitor, single point] | – |
| Cc1cccc(N(CC(=O)NCc2ccco2)S(=O)(=O)c2ccccc2)c1 | inactive | – |
| CC(C(=O)N1CCN(C=O)CC1)N1C(=O)c2ccccc2C1=O (configuration not stated) | inconclusive: 29.1 µM [inhibitor, single point] | – |
| CN(C)c1ccc(-c2[nH][nH]c(=O)c2NC(=O)c2ccccn2)cc1 | inconclusive: 29.1 µM [inhibitor, single point] | – |
| Cc1ccccc1-c1nc(-c2ccc(Br)o2)no1 | inactive | – |
| COc1ccccc1NC(=O)c1ccc(COc2ccccc2OC)o1 | inactive | – |
| COCCOC(=O)C1=C(C)NC(=O)NC1c1cccs1 (configuration not stated) | inactive | – |
| O=C(NCCN1C(=O)S/C(=C\c2ccccc2F)C1=O)C1CCN(S(=O)(=O)c2cccs2)CC1 | inconclusive: 29.1 µM [inhibitor, single point] | – |
| O=C(Nc1ccc(N2CCCC2)c(Cl)c1)c1cccc(-c2cc3ccccc3oc2=O)c1 | inconclusive: 29.1 µM [inhibitor, single point] | – |
| COc1ccc(OCc2cc(C(=O)N3CCN(C4CCCC4)CC3)no2)c(Cl)c1 | inconclusive: 29.1 µM [inhibitor, single point] | – |
| Cc1nc([N+](=O)[O-])c(Br)n1Cc1ccc(Cl)c(Cl)c1 | active: 2.59 µM | – |
| Cc1ccc(NC(CC(=O)c2ccccc2)c2ccc(F)cc2)cc1 (configuration not stated) | inconclusive: 14.6 µM [inhibitor, single point] | – |
| CCOc1ccc(NC(=S)N2CCN(S(=O)(=O)c3ccc(OC)cc3)CC2)cc1 | – | inconclusive: -33.5% [inhibitor] |
| COc1cc2nc(NCCC(C)C)n3nc(-c4ccccc4)nc3c2cc1OC | inconclusive: 3.66 µM [inhibitor, full curve] | – |
| COc1cc(OC)cc(C(=O)Nc2nnc(Cc3ccc(OC)c(OC)c3)s2)c1 | inactive | – |
| Cc1cc(C)n2c(Nc3ccc(Cl)cc3)c(-c3ccsc3)nc2n1 | inconclusive: 29.1 µM [inhibitor, single point] | – |
| Cc1nn(-c2ccccc2)c(N2CCCC2)c1/C=N/n1cnc2scc(-c3ccccc3)c2c1=O | active: 18.4 µM and active: 12.6 µM | – |
| CCN(CC)S(=O)(=O)c1cccc(C(=O)NCC2(N3CCOCC3)CCCCC2)c1 | inconclusive: 16.4 µM [inhibitor, single point] | – |
| COc1ccc(-n2c(SCC(=O)N/N=C/c3ccccc3OCC(=O)O)nc3ccccc3c2=O)cc1 | inactive | – |
| Cc1cc2oc(=O)cc(COC(=O)Cn3cnnn3)c2cc1C(C)C | inconclusive: 25.9 µM [inhibitor, single point] | – |

| Compound | Potency | activity change, negative = growth inhibition |
| --- | --- | --- |
| COc1cccc(C(=O)Nc2ccc3nc(SCC(=O)N4CCOCC4)sc3c2)c1 | active: 13 µM | – |
| COc1ccc(C2CC(=O)C3=C(C2)NC(C)=C(C#N)C3c2ccc(N(C)C)cc2)cc1 (configuration not stated) | inactive | – |
| Cn1c(=O)n(C)c2cc(NS(=O)(=O)c3ccc(F)cc3)ccc21 | inactive and inconclusive: 29.1 µM [inhibitor, single point] | – |
| COc1ccc(C(=O)Nc2ccc(-c3ccc(C)o3)cc2)cc1S(=O)(=O)N1CCOCC1 | active: 20.6 µM | – |
| CCO/C(C)=N/n1c2nc3ccccc3nc2c2c(=O)n(Cc3ccccc3Cl)c(C)nc21 | active: 25.9 µM | – |
| COc1ccccc1CCn1c(=O)c(-c2ccccc2)nc2cncnc21 | inconclusive: 29.1 µM [inhibitor, single point] | – |
| O=C(Nc1cccc2ccccc12)c1cnsn1 | inactive | – |
| COc1ccc(-c2nc(N)n(S(=O)(=O)c3ccc(C)cc3)n2)cc1 | inconclusive: 29.1 µM [inhibitor, single point] | – |
| COc1ccc2cc(C(=O)Nc3ccc(F)cc3)sc(=O)c2c1OC | inconclusive: 20.6 µM [inhibitor, partial curve] | – |
| CC1CCC(CN2C(Nc3ccccc3)=NC[C@@H]2C)CC1 (some centres not stated) | inconclusive: 16.4 µM [inhibitor, partial curve, poor fit] | – |
| CCOC(=O)c1cnc(-c2ccccc2)nc1Oc1ccc(Cl)cc1 | – | inconclusive: -30.3% [inhibitor] |
| CC(C(=O)N1CCOCC1)c1ccccc1 (configuration not stated) | inactive | – |
| Cc1ccc(OCC(=O)N(c2ccc(C)cc2)S(=O)(=O)c2ccc(Cl)cc2)cc1 | inconclusive: 25.9 µM [inhibitor, single point] | – |
| CCC(C)(C)n1nnnc1C(c1ccc(F)cc1)N1CCN(C(=O)c2ccco2)CC1 (configuration not stated) | inactive | – |
| Cc1nn(Cc2ccccc2)c(C)c1NC(=O)CSc1nc(-c2ccccc2)nc2c1cnn2-c1ccccc1 | inconclusive: 25.9 µM [inhibitor, single point] | – |
| COc1ccc(S(=O)(=O)N2CCCCCC2)cc1C(=O)NCc1ccc(C)cc1 | inconclusive: 29.1 µM [inhibitor, single point] | – |
| Cc1ccc2c(CN3CCN(C(=O)c4ccc(F)cc4)CC3)cc(=O)oc2c1 | inactive | – |
| Cc1sc2nc(SCC(=O)N(C)Cc3ccccc3)n(-c3ccccc3)c(=O)c2c1C | inconclusive: 20.6 µM [inhibitor, single point] | – |
| O=C(Nc1ccccc1Cl)N(Cc1nc2ccccc2c(=O)[nH]1)Cc1cccs1 | inconclusive: 23.1 µM [inhibitor, single point] | – |
| Nc1cccc(-c2nc3ccccc3[nH]2)c1 | inconclusive: 29.1 µM [inhibitor, single point] | – |
| CCCn1c2c(c(O)c(C(=O)Nc3ncccc3O)c1=O)CCCC2 | inactive | – |
| CCn1c(C)nc2cc(C(=O)N/N=C(\C)c3ccc(OC)cc3O)ccc21 | active: 10.3 µM | – |
| CCn1c(=O)c2[nH]c(Cl)nc2n(CC)c1=O | inconclusive: 18.4 µM [inhibitor, single point] | – |
| O=C(CNCc1ccccc1Cl)Nc1ccc2c(c1)OCCO2 | inconclusive: 13 µM [inhibitor, partial curve] | – |
